Source: publication PMC5116814, “Potent, Reversible, and Specific Chemical Inhibitors of Eukaryotic Ribosome Biogenesis” (Cell, 2016)
Where a chain is given by its changes, count along the chain named. In names and notes the source's numbering stands. Read-outs that look alike come from different tables or passages of the source. No constants are given. Whether binding was seen depends on the method and setting. For some assays here: Binding seen in cells or lysates may run through a third protein. Some entries that bind do so weakly or less than the wild type. For some assays here: Sequences can lack the tags named with a protein. Values belong to the molecule of their own block, whether it stands above or below them.

Key:
Nsa1-5FLAG (S. pombe) [1] = molecular target: T1, Nsa1-5FLAG (S. pombe) (UniProt O94698); assay: co-IP; Rix1-5FLAG or Nsa1-5FLAG immunoprecipitated with anti-FLAG M2 antibody and Dynabeads Protein G, 1 hr at 4°C, from S. pombe whole cell extracts; western blot with anti-HA, anti-FLAG or anti-GFP; wild-type, mdn1-ts26 (6 hr at 36°C) or mdn1-F1093L cells, untreated or treated with Rbin-1 (1 uM) for the indicated times
T1 sequence: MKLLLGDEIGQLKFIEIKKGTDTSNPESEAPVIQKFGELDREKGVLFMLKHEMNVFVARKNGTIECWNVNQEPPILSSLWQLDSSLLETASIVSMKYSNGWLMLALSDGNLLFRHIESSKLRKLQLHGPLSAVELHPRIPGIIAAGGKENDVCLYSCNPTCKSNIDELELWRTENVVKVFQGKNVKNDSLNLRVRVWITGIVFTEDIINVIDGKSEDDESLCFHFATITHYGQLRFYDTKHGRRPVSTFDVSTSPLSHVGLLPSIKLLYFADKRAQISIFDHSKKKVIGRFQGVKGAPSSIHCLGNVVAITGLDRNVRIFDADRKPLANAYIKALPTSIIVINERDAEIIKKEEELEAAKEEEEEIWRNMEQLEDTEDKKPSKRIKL

Nsa1-5FLAG (S. pombe) [2] = molecular target: T1, Nsa1-5FLAG (S. pombe); assay: as above; remark: listed apart in the source
[3] = molecular target: T2, S. pombe Mdn1 MIDAS (4301-4717 aa) (S. pombe) (UniProt O94248); assay: two-hybrid; S. cerevisiae AH109; pGBKT7-mdn1 MIDAS as bait, pGADT7 MIDO constructs as prey; spotted on SC-LeuTrp (+His) and SC-LeuTrpHis (-His) plates, 2 days at 32°C
T2 sequence: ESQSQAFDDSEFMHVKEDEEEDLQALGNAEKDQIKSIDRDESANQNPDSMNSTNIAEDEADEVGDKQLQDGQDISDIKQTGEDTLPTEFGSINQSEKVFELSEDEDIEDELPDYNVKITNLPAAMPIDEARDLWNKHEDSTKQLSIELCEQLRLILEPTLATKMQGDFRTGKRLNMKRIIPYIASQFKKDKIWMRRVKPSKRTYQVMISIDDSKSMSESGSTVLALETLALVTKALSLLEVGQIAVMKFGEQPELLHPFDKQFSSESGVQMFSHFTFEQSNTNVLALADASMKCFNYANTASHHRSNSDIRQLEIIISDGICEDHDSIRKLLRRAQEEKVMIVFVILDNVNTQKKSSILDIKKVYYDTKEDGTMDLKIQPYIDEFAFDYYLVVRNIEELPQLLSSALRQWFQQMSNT

Rix1-5FLAG (S. pombe) = molecular target: T3, Rix1-5FLAG (S. pombe) (UniProt P87243); assay: co-IP; Rix1-5FLAG or Nsa1-5FLAG immunoprecipitated with anti-FLAG M2 antibody and Dynabeads Protein G, 1 hr at 4°C, from S. pombe whole cell extracts; western blot with anti-HA, anti-FLAG or anti-GFP; wild-type, mdn1-ts26 (6 hr at 36°C) or mdn1-F1093L cells, untreated or treated with Rbin-1 (1 uM) for the indicated times
T3 sequence: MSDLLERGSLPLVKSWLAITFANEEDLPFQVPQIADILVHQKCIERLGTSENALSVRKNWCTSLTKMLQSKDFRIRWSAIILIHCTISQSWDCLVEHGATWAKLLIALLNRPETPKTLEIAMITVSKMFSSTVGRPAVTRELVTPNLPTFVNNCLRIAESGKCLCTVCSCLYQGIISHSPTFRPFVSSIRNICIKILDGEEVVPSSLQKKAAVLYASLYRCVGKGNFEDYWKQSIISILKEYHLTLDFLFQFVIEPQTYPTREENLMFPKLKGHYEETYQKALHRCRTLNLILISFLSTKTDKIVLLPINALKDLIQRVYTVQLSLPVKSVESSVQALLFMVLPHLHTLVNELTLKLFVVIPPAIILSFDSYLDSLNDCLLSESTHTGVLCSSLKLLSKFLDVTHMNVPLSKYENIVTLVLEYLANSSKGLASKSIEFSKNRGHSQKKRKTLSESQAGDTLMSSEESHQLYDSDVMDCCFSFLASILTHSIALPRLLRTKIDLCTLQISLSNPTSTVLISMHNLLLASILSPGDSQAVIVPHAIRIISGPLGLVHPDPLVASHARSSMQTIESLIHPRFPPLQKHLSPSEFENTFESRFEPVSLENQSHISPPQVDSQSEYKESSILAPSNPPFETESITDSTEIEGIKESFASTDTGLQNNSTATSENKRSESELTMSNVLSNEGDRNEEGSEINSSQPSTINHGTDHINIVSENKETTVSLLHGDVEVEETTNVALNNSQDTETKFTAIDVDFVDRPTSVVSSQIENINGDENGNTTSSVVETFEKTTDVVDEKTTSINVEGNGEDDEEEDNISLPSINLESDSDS

binding (Nsa1-5FLAG (S. pombe) [1]): binds
Molecule: GFP-Mdn1 (from UniProt O94248 1-4717)

binding (Nsa1-5FLAG (S. pombe) [2]): binds
B1: Ppp1-GFP (protein, UniProt O60164 1-607)
chain: MARVKQKGKAGAARIYITRNQALKKLQLTLADFRRICILKGVYPREPKNKKKANKGSTAPVTFYYTKDIQYLLHEPIVQKFREYKVFARKLSKALGKGELETAKRLEARKPTYSLDHIIKERYPTFHDALKDIDDALSMLFLFSTMPVTDKIGAATVANCERLCAEFQHYVIRSNSLRKAFLSIKGIYYQAEIFGEQITWIVPYKFAQSVPTDVDFRIMHTFLEFYQALMGFVNFKLYNTLGLRYPPKIDVAKSESAAGLAAYELEESSSLPAIVHGNNKNARKNIATLKSKIRDIVNSDANVVEQSEKTTEDADEEPETEENLDEFKPADGADNEDSKSLVSHISSSNTSLFSNFTFFLSREVPRFSLEFVIRAFGGKVGWDPILGSGSPFSESDPVITHHICDRPHISQKYEGRIYIQPQWVYDSINKGILERTDLYACGATLPPHLSPFVKVGENDYDPEAELSAEENDDVSEALDDNISGEAVPISKKNDEPENVEQIDDAEEEDLEHQRELEAEAGGVAYSEYVKQNSKSAKKTKKRQRDTLTAEEKEEKEAKELSKMMMSNKQRKLYSKLKNENSKNENYNNALRNRKRDIEKRKKLKVEN

binding [3]: binds
B2: S. pombe Ytm1 MIDO domain (1-93 aa) (domain or fragment, UniProt Q9URY0 1-93)
chain: MDAQSAPSGQVQVRFTTRNEDLAVGDTPIFVPTSLKRYGLSQIVNHLLKTEKPTPFDFLVQGQLLKTTLDEYIVQNGLSTESILDIEYIQSTL

binding (Nsa1-5FLAG (S. pombe) [2]): binds
binding (Rix1-5FLAG (S. pombe)): binds
B3: Ytm1-3HA (protein, UniProt Q9URY0 1-440)
chain: MDAQSAPSGQVQVRFTTRNEDLAVGDTPIFVPTSLKRYGLSQIVNHLLKTEKPTPFDFLVQGQLLKTTLDEYIVQNGLSTESILDIEYIQSTLPPAYLASFSHDDWISGIQLTSDTILTSSYDGIARVWDKSGEIKFQSTGCGSSLKSASWHIPNQSFLTASLDQKIFHWVIEEPESMLDAEKKSSGILQTLFVGHKDIVERVRSLESSSVFISASADNTVGIWDFERSPETTLESFSSSISKKRRRKNAEFTPQAGARSPLILCEGHTGPVMDIVFSDDPSVAYSVGQDHTIKTWDLITGQNVDSKITKAPLLCVEKLTDLHLVICGSSARHIVVHDPRAGSDKIVSHTLSGHKNLVSGLSASPENPYMFASVSHDNTCRVWDVRATSGSIYTISRAEKTGSQWDKLFAVDWNKSIGIVTGGTDKQLQINQSSSFGKSE

binding (Rix1-5FLAG (S. pombe)): binds
B4: GFP-Rsa4 (protein, UniProt O74855 1-502)
chain: MATLLPPKSKRQKKESLNPTTIEIPEKFPLVNVQFRASDDSNELASLLVPGNSSVRQLEALLNQLLENSDDPVPYNFALHHEDETIEIQDNLYTSVFHNGLMKTEDHLTLLYTPQAVFRVRAVTRCTASMNGHDGTIISAQFSPSTSSRLVTGSGDFTARLWDCDTQTPIATMKGHTNWVSCVAWAPDASIIATGSMDNTIRFWDPKKGSPIGDALRRHTKPIMALCWQPLHLAPDSGPYLLASGSKDNTVRIWNVKLRTLLFTLSGHTAPITCVRWGGQNWIYSSSYDKTIRIWDAKDGKCLHILKGHAARVNHLSLSTEHVLRSGAYDHTDFKPKSFSDERRKAKERYEACLKQSGERLVSASDDLQLILWDPQKSTKPITKMHGHQKVVNHASFSPDGRCIATASFDSSVRLWDGKTGKFLATLRGHVAAVYQCAWSTDSRLLVSSSQDTTLKVWDVRSKKMKFDLPGHEDQVFAVDWSPDGQRVASGGADKAVRIWSH

binding [3]: binds
B5: S. pombe Rsa4 MIDO domain (1-144 aa) (domain or fragment, UniProt O74855 1-144)
chain: MATLLPPKSKRQKKESLNPTTIEIPEKFPLVNVQFRASDDSNELASLLVPGNSSVRQLEALLNQLLENSDDPVPYNFALHHEDETIEIQDNLYTSVFHNGLMKTEDHLTLLYTPQAVFRVRAVTRCTASMNGHDGTIISAQFSP

binding [3]: no binding
B6: S. pombe Rsa4 MIDO domain (1-144 aa) E105D (domain or fragment, UniProt O74855 1-144)
chain: B5 chain with E105D
